Measured values as given in US20220041727A1 (published 2022).

How the values were obtained:
[1] = molecular target: T1, LAG3(1-477)-EA expressed in U2OS cells (human, UniProt P18627 23-477); assay: proximity dimerization assay (beta-galactosidase enzyme fragment complementation) in U2OS cells
T1 construct: Range 1-477 is printed without naming an entry; Expressed in the cell membrane; also called extracellular domain of LAG-3 (1-477) fused to the EA subunit; U2OS.LAG3(1-477)-EA.PD1(1-199)-PK; not shown: enzyme acceptor (EA) beta-galactosidase fragment
T1 sequence: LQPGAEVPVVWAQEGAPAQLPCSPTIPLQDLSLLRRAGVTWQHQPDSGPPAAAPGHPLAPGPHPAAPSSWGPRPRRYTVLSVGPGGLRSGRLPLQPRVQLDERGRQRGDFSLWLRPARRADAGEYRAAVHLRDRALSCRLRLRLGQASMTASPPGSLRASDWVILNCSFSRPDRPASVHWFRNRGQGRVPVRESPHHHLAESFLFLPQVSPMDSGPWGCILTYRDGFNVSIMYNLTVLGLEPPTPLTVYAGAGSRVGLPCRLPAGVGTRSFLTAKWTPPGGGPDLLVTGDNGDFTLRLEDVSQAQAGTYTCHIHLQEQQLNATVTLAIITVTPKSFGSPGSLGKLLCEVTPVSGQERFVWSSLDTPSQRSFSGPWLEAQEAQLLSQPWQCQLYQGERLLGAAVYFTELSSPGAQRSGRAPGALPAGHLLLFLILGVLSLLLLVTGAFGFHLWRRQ

[2] = molecular target: T2, PD1(1-199)-PK expressed in U2OS cells (human, UniProt Q15116 part only); assay: as above
T2 construct: Range 1-199 is printed without naming an entry; Expressed in the cell membrane; also called extracellular domain of PD-1 (1-199) fused to the PK subunit; U2OS.LAG3(1-477)-EA.PD1(1-199)-PK; not shown: ProLink (PK) beta-galactosidase fragment tag
T2 sequence (Q15116 25-199): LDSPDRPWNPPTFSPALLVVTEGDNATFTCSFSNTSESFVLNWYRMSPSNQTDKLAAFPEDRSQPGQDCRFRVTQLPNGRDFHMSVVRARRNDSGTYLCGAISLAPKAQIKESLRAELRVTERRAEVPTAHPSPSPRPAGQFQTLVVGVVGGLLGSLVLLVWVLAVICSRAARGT

MSA = molecular target: T3, MSA (UniProt P07724 25-608); assay: SPR (Biacore T100), albumin immobilised, Nanobody injected
T3 construct: Identity as mouse serum albumin is an inference from the abbreviation
Protocol: Kinetic analysis of the Nanobodies was performed by SPR technology, using the Biacore T100 instrument (GE Healthcare). […] After immobilization, surfaces were deactivated with 1M ethanolamine/HCl (pH 8.5). The flow rate during the sensor preparation was set on 5 μl/min.
Sensorgram processing and data analysis was performed with Biacore T100 Evaluation Software Version 2.0.4 (GE Healthcare). […] Processed curves were evaluated via fitting with the model ‘Langmuir with Mass Transport’.

[3] = molecular target: T4, human LAG-3 expressed on cells (human, UniProt P18627 23-525); assay: flow cytometry on CHO cells over-expressing human LAG-3
T4 construct: also called hLAG-3; 3A9.hLAG-3
T4 sequence: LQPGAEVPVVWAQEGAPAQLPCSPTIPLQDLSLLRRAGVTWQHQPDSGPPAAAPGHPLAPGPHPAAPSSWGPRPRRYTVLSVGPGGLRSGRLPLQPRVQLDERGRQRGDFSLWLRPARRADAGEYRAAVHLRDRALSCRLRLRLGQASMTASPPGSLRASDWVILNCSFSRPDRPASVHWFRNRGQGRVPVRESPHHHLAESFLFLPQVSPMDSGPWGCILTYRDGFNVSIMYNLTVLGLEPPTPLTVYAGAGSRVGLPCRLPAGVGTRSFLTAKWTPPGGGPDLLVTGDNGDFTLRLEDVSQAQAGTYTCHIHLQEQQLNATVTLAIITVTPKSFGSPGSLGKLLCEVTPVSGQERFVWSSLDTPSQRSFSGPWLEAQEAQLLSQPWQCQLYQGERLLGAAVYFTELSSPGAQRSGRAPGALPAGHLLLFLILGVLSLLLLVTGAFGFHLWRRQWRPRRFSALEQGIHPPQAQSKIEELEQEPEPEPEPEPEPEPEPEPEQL

human LAG-3-hFc = molecular target: T5, human LAG-3-hFc (human, UniProt P18627 23-450); assay: flow cytometry, blockade of human LAG-3-hFc binding to Daudi cells
T5 construct: also called human LAG3-Fc; Human LAG-3-Fc; not shown: human Fc (hFc)
T5 sequence: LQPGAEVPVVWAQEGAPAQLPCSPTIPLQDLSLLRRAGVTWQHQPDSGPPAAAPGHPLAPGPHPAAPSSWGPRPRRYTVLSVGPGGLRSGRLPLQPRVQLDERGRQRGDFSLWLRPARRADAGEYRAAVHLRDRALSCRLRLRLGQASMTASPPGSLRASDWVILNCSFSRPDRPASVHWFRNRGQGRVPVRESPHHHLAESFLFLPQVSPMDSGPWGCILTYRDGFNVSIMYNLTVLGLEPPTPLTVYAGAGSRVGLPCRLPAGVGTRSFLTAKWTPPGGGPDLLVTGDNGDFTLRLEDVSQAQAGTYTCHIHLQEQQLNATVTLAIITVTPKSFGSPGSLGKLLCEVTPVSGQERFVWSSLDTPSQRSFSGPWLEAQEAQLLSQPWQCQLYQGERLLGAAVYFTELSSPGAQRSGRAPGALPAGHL
Protocol: A Nanobody dilution series was prepared in assay buffer: HBSS/2% FBS. Prior to the experiment, Fc receptors on the Daudi cells were blocked with human Fc block (BD Pharmingen, 564220) and 5 μg/mL goat IgG (Jackson ImmunoResearch, 005-000-003) for 30 minutes at 4° C. […] 1×10⁵ cells/well were seeded in V-bottom 96-well plates and resuspended in 100 μL/well of the Nanobody/ligand dilution. After 30 minutes incubation at 4° C., the cells were washed and resuspended in 100 μL/well PE-labeled Goat anti-human IgG (Southern Biotech, 2043-09). Samples were incubated for 15 minutes at 4° C., washed, and resuspended in 100 μL/well of 5 nM TOPRO3 (LifeTechnologies, T3606) solution before analysis on FACS CANTO II (BD).

B1: F023700969 (102C12 (E1D, L11V, A14P, A74S, K83R, I89L)-20GS-F0237611B09 (L11V, A14P, R41P, N43K, A62S, A74S, K83R, V89L)-20GS-ALB11002-A) (bispecific antibody)
chain: DVQLVESGGGVVQPGGSLRLSCAASGSIASIHAMGWFRQAPGKEREFVAVITWSGGITYYADSVKGRFTISRDNSKNTVYLQMNSLRPEDTALYYCAGDKHQSSWYDYWGQGTLVTVSSGGGGSGGGGSGGGGSGGGGSEVQLVESGGGVVQPGGSLRLSCAASGRTFSDYVMGWFRQAPGKEREFVAAISESGGRTHYADSVKGRFTISRDNSKNTLYLQMNSLRPEDTALYYCATTLLWWTSEYAPIKANDYDYWGQGTLVTVSSGGGGSGGGGSGGGGSGGGGS[about 120 residues not spelt out]
notes: 20GS-linker version of F023700924
- binding result [1]: binds
- binding result [2]: binds

B2: F023700970 (102C12 (E1D, L11V, A14P, A74S, K83R, I89L)-9GS-F0237611B09 (L11V, A14P, R41P, N43K, A62S, A74S, K83R, V89L)-9GS-ALB11002-A) (bispecific antibody)
chain: DVQLVESGGGVVQPGGSLRLSCAASGSIASIHAMGWFRQAPGKEREFVAVITWSGGITYYADSVKGRFTISRDNSKNTVYLQMNSLRPEDTALYYCAGDKHQSSWYDYWGQGTLVTVSSGGGGSGGGSEVQLVESGGGVVQPGGSLRLSCAASGRTFSDYVMGWFRQAPGKEREFVAAISESGGRTHYADSVKGRFTISRDNSKNTLYLQMNSLRPEDTALYYCATTLLWWTSEYAPIKANDYDYWGQGTLVTVSSGGGGSGGGS[about 120 residues not spelt out]
notes: 9GS-linker version of F023700924
- binding result [1]: binds
- binding result [2]: binds

B3: F023700931 (1PD102C12 (E1D, L11V, A14P, A74S, K83R, I89L)-35GS-1PD102C12 (L11V, A14P, A74S, K83R, I89L)-35GS-F0237611B09 (L11V, A14P, R41P, N43K, A62S, A74S, … (bispecific antibody)
chain: DVQLVESGGGVVQPGGSLRLSCAASGSIASIHAMGWFRQAPGKEREFVAVITWSGGITYYADSVKGRFTISRDNSKNTVYLQMNSLRPEDTALYYCAGDKHQSSWYDYWGQGTLVTVSSGGGGSGGGGSGGGGSGGGGSGGGGSGGGGSGGGGSEVQLVESGGGVVQPGGSLRLSCAASGSIASIHAMGWFRQAPGKEREFVAVITWSGGITYYADSVKGRFTISRDNSKNTVYLQMNSLRPEDTALYYCAGDKHQSSWYDYWGQGTLVTVSSGGGGSGGGGSGGGGSGGGGSGGGGSGGGGSGGGGSEVQLVESGGGVVQPGGSLRLSCAASGRTFSDYVMGWFRQAPGKEREFVAAISESGGRTHYADSVKGRFTISRDNSKNTLYLQMNSLRPEDTALYYCATTLLWWTSEYAPIKANDYDYWGQGTLVTVSSGGGGSGGGGSGGGGSGGGGSGGGGSGGGGSGGGGSEVQLVESGGGVVQPGGSLRLSCAASGRTFSDYVMGWFRQAPGKEREFVAAISESGGRTHYADSVKGRFTISRDNSKNTLYLQMNSLRPEDTALYYCATTLLWWTSEYAPIKANDYDYWGQGTLVTVSSGGGGSGGGGSGGGGSGGGGSGGGGSGGGGSGGGGS[about 120 residues not spelt out]
notes: Pichia- and CHO-expressed lots tested; also called F023700931-CHO-EXP1; Pentamer
- koff (MSA): < 0.6 s⁻¹
- kon (MSA): > 500000 M⁻¹ s⁻¹
- binding result [3]: binds
- binding result (human LAG-3-hFc): binds

B4: F023700924 (1PD102C12 (E1D, L11V, A14P, A74S, K83R, I89L)-35GS-F0237611B09 (L11V, A14P, R41P, N43K, A62S, A74S, K83R, V89L)-35GS-ALB11002-A) (bispecific antibody)
chain: DVQLVESGGGVVQPGGSLRLSCAASGSIASIHAMGWFRQAPGKEREFVAVITWSGGITYYADSVKGRFTISRDNSKNTVYLQMNSLRPEDTALYYCAGDKHQSSWYDYWGQGTLVTVSSGGGGSGGGGSGGGGSGGGGSGGGGSGGGGSGGGGSEVQLVESGGGVVQPGGSLRLSCAASGRTFSDYVMGWFRQAPGKEREFVAAISESGGRTHYADSVKGRFTISRDNSKNTLYLQMNSLRPEDTALYYCATTLLWWTSEYAPIKANDYDYWGQGTLVTVSSGGGGSGGGGSGGGGSGGGGSGGGGSGGGGSGGGGS[about 120 residues not spelt out]
notes: Pichia- and CHO-expressed lots tested; also called F023700924-CHO-EXP1; Trimer
- binding result [1]: binds
- binding result [2]: binds
- koff (MSA): < 0.6 s⁻¹
- kon (MSA): > 500000 M⁻¹ s⁻¹
- binding result [3]: binds
- binding result (human LAG-3-hFc): binds
